From patent US8791092B2 (priority 2009, dated 2014)

Biological target: Aβ42 (Homo sapiens, UniProt P05067)
Assay: Aβ42 aggregation measured by dynamic light scattering (DLS)
Assay type: biochemical
Set-up: C) 30 μM Aβ42
Conditions: 1:1 concentration ratio

SMILES: O=P(O)(O)Oc1c2c(c(OP(=O)(O)O)c3c1C1C[C@H]3c3cc4c(cc31)C1C[C@H]4c3ccccc31)[C@@H]1CC2c2cc3c(cc21)[C@@H]1CC3c2ccccc21 [TW1]
- abundance of Aβ42 fraction of RH=20-60 nm particles versus absence of tweezers (DLS): about twice as abundant
